Measured values from PubChem BioAssay AID1963576 (National Center for Advancing Translational Sciences (NCATS), 2024).
Among all 46,000 compounds or so, about 60 (0.1%) were called active. About 3% were inconclusive and are not listed. The call rests on the fitted dose curve; in most records, active means well fitted inhibition curve with a large enough effect; inconclusive means small, poorly fitted or top-dose-only effect; inactive means no such curve, though single readings can be large or run the other way. The list shows a part of the results.

assay: Primary qHTS assay for Inhibitors of ovarian cancer metastasis using an organotypic tumor microenvironment (TME) model.; further: nearly all actives have a fitted effect of over 65% in size;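 on activity change, negative = inhibition: plate controls were DMSO wells for no effect and tomatine positive control wells for full effect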; conditions: SKOV3ip1-GFP adhesion/invasion on 3D omental model, fluorescence; series mostly up to 45.8 µM; activity change, negative = inhibition: at the top concentration
Summary of the method: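 qHTS, 4-pt dose (0.36-46 umol/L); SKOV3ip1-GFP, 1,200 cells/well, no FBS; primary omental fibroblast/mesothelial co-culture 48 h pre-grown; 2 h RT + 16 h 37 C; PBS wash, 4% PFA; GFP count 488/509 nm.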

outcome, inactive:
CCCCNC(=O)CSc1nc2ccccc2nc1Cc1ccccc1
Cc1ccc(N2CC(NC(=O)C3CCCC3)CC2=O)cc1 (stereo not given)
CCOc1ccc(Nc2ncnc3onc(-c4ccc(Cl)cc4)c23)cc1
CC(=O)N1c2ccccc2CC1C(=O)N1CCN(c2ccccc2F)CC1 (stereo not given)
CCOC(=O)C1=C(CNCc2ccc(Cl)cc2)NC(=O)NC1c1ccccc1 (stereo not given)
COc1cc(NC(=O)Cn2cc(S(=O)(=O)N3CCC(C)CC3)c3ccccc3c2=O)cc(OC)c1OC
CCOC(=O)c1ccc(NC(=O)C2CCCN(c3cnccn3)C2)cc1 (stereo not given)
CC(=O)c1ccc(N2CCN(S(=O)(=O)c3ccc(-c4cnc(C5CC5)o4)cc3)CC2)cc1
CN(C)c1ccc(CNC(=O)C2CCN(C(=O)c3ccc(-n4ccc5ccccc54)s3)CC2)cc1
CCCCNc1nc2c(-c3cccc(Br)c3)nnn2c2ccccc12
COc1ccc(CNS(=O)(=O)c2csc(C(N)=O)c2)cc1OC
Cc1cn2c(=O)cc(COC(=O)c3ccc(NC(=O)c4ccc(C(C)(C)C)cc4)cc3)nc2s1
COC(=O)c1ccc(OCC2c3cc(OC)c(OC)cc3CCN2C(=O)Cc2ccc(OC)c(OC)c2)cc1 (stereo not given)
COc1ccc(-c2nc3sc(CCNC(=O)c4ccc(C(C)(C)C)cc4)c(C)n3n2)cc1
COc1ccc(C(=O)Nc2ccc3c(c2)N(C)C(=O)c2ccccc2S3)cc1OC
CCOC(=O)N1CCN(C(=O)c2cnn(-c3cccc(C)c3)c2-n2cccc2)CC1
Cc1ccc(C(C)C)c(OCC(=O)Nc2ccc(-c3nc4ncccc4o3)cc2C)c1
COc1ccc(CNS(=O)(=O)c2ccc3c(c2)C(C)(C)C(=O)N3C)cc1OC
CCOC(=O)C1=C(CS(=O)(=O)c2ccc(F)c(C)c2)NC(=O)NC1c1ccc(F)c(F)c1 (stereo not given)

Activity change, negative = inhibition, inactive:
Cc1ccc(C(=O)c2cn(CC(=O)Nc3ccc4c(c3)OCCO4)c3nc(C)ccc3c2=O)cc1 -14.2%
CCOc1ccc(Nc2c(S(=O)(=O)c3ccccc3)cnc3ccc(CC)cc23)cc1 -14.9%
COc1cccc(N2CCN(C(=O)Cn3ncc4c3-c3ccccc3OC4)CC2)c1 2.8%
CC(C)CCNC(=O)c1ccc(NC(=O)N2CCCCc3ccccc32)cc1 1.5%
O=C(CSc1nc2ccccc2n1Cc1ccccc1)NCc1ccccc1 0.637%
CC(C)CC(NC(=O)C1CCC(C)CC1)C(=O)OCC(=O)c1ccc(Cl)cc1 (stereo not given) -7.07%
CSc1oc(-c2ccc(F)cc2)nc1S(=O)(=O)c1ccc(Br)cc1 -14.8%
COc1ccc(NC(=O)c2ccco2)cc1NC(=O)c1ccc(OC(C)C)cc1 6.49%
Cc1cc(C)cc(OC(C)C(=O)Nc2nc3c(s2)CCCC3)c1 (stereo not given) -5.62%
COc1cn(CC(=O)Nc2cccc(C)c2)c(CN2CCCCC2)cc1=O -0.823%
COc1ccc(CCNC(=O)Cn2nc(-c3ccc(Cl)cc3)ccc2=O)cc1OC 1.25%
CCCC(C(=O)Nc1cc(C)c(Cl)cc1OC)N1Cc2ccccc2C1=O (stereo not given) -0.279%
COc1cccc(/C=C(\C#N)c2nc3ccccc3c(=O)[nH]2)c1OC -2.15%
COc1ccc(Oc2ncnc3c2oc2ccccc23)cc1 -8.81%
Cc1nc2sccn2c(=O)c1S(=O)(=O)Nc1cccc(Cl)c1C 15.3%
Cc1ccc(OCC(=O)Nc2ccc(C(=O)OCc3cc(=O)n4ccsc4n3)cc2)cc1C -3.79%
Cc1ccc(NC(=O)N2CCC(CN3CCCCC3)CC2)c(Cl)c1 12.9%
CCOC(=O)c1cc(-c2ccc(OC)cc2)n(CCC(=O)NCCc2ccc(OCC)c(OCC)c2)c1C -14.2%
CCn1cc(/C=C(\NC(=O)c2ccc(OC)c(OC)c2)C(=O)NCCCn2ccnc2)c2ccccc21 13.1%
Cc1ccccc1Nc1nnc(-c2ccc(C)c(S(=O)(=O)NCC3CCCO3)c2)c2ccccc12 (stereo not given) 2.69%
CCOC(=O)c1c(-c2ccc(OC)cc2)oc2ccc(OCc3ccc(F)cc3F)cc12 -1.57%
CC(C)(C)OC(=O)N1CCC(c2c(C(=O)N3CCN(c4ncccn4)CC3)cnn2-c2ccc(F)cc2)CC1 -19.2%
O=C(O)Cc1cccc(OCCCN(Cc2cccc(C(F)(F)F)c2Cl)CC(c2ccccc2)c2ccccc2)c1 -3.59%
CC1CCN(c2nc3c(S(=O)(=O)c4cccc(Cl)c4)nnn3c3ccsc23)CC1 -2.02%
Cc1ccc(N2CCN(C(=O)CCS(=O)(=O)c3cc4c(cc3Cl)NC(=O)CO4)CC2)c(C)c1 10.4%
Cc1ccc(C2C(=O)N(C3CCCCCC3)CC(=O)N2CCC2=CCCCC2)cc1 (stereo not given) -2.36%
COc1ccc(C2=Nc3ccccc3N(CC(=O)Nc3cccc(C(C)=O)c3)C(=O)C2)cc1 -1.87%
CCOC(=O)c1ccc(NC(=O)C(CC)Sc2nncn3c2cc2oc(C)cc23)cc1 (stereo not given) 5.87%
Cn1nnnc1SCCCNCc1cc(Cl)ccc1OCc1ccccc1 -27%
O=C1Nc2c(c(=O)[nH]c(=O)n2-c2ccc(F)cc2)C1(NS(=O)(=O)c1ccc(Cl)cc1)C(F)(F)F (stereo not given) 13.6%
COc1ccc(OCCCn2c(C)nc3cc(C)c(C)cc32)cc1 2.49%
COc1cccc2c1cc1c(=O)n(CC(=O)NCCCN3CCN(C)CC3)nc(C)n12 5.94%
CCC1=C(c2ccc(C)cc2)S(=O)(=O)N=C1N1CCC(C(=O)NCCc2cccc(OC)c2)CC1 -4.97%
CC(=O)N1CCc2c(sc3c2c(=O)n(-c2ccccc2)c(=O)n3CC(=O)c2ccc(F)cc2)C1 17.9%
CCc1ccc(NC(=O)C2CCCN2S(=O)(=O)c2cccc3nsnc23)cc1 (stereo not given) -9.16%
COc1cc(C(=O)Nc2nnc(CC(C)(C)C)s2)cc(OC)c1OC 1.83%
Cc1cn2c(=O)c(S(=O)(=O)NCCc3ccc(Cl)cc3)c(C)nc2s1 6.41%
CC(C)c1nn2c(=O)cc(COC(=O)c3ccc4c(c3)OCO4)nc2s1 1.64%
CCN(CC)CCNC(=O)Cn1cnc2sc(C)c(S(=O)(=O)N3CCC(C)CC3)c2c1=O 16.4%
COc1ccc(NC(=O)Cc2ccc(NC(=O)N3CCCCc4ccccc43)cc2)c(OC)c1 1.91%
CC(C)c1ccc(NC(=O)c2cc(S(=O)(=O)NCCC3=CCCCC3)ccc2F)cc1 -38.5%
CCOC(=O)C1CCC(CN(Cc2ccc(OC)cc2)S(=O)(=O)c2ccc(F)c(C(=O)Nc3cc(Cl)ccc3OC)c2)CC1 (stereo not given) 2.78%
Cn1cc(-c2cc3n(n2)CCC(=O)N3CCCC(=O)NCc2ccccc2)c2ccccc21 -3.62%
COc1ccc(CNC(=O)CN(C)S(=O)(=O)c2ccc3[nH]c4c(c3c2)CCCC4)cc1 -7.64%
CCOc1ccccc1C(=O)Nc1cc2c(cc1C)n(C)c(=O)c(=O)n2C 4.7%
CCOc1ccc(C(=O)Nc2ccc(Cl)c(-c3nc4cc(C)cc(C)c4o3)c2)cc1 -0.359%
CCc1ccc2occ(CC(=O)NCc3ccccc3)c2c1 -37.3%
Cc1oc(-c2ccc(Cl)cc2)nc1CN1CCCC(C(=O)NCc2ccc(Cl)cc2)C1 (stereo not given) 15.2%
CN(Cc1ccccc1)C(=O)c1ccc2c(c1)N(Cc1ccc(Cl)cc1)C(=O)c1ccccc1S2=O (stereo not given) -5.3%
CCOC(=O)c1cnc2c(C)cc(C)cc2c1Nc1ccc(N2CCOCC2)cc1 7.11%
Cc1ccc(-n2nc(C)c(C(=O)NCCCN3CCN(c4ccccc4F)CC3)c2-n2cccc2)cc1 -26.4%
Cn1c(=O)c2c(c3ccccc31)OC(=O)CC2c1ccccc1 (stereo not given) 0.367%
O=c1c2ccccc2n2c(-c3cccc(F)c3)nnc2n1Cc1ccccc1 3.45%
COc1ccc(NC(=O)c2ccc3c(=O)n4nc(Nc5ccccc5C)sc4nc3c2)cc1 2.72%
CC(C)c1ccc(NC(=O)CSC2=Nc3ccccc3C3=NC(CC(=O)NCc4ccco4)C(=O)N23)cc1 (stereo not given) 4.38%
COc1cccc(NS(=O)(=O)c2ccc3[nH]cc(C(=O)N(C)Cc4ccco4)c(=O)c3c2)c1 -5.14%
Cc1ccc(CC(=O)NCc2nc(-c3cccc(C)c3)no2)cc1 21%
Cc1ccc(N(C)C(=O)c2noc3c2CCCCC3)cc1C -17.9%
COc1ccc(OC)c(NC(=O)c2cc3c(=O)n4cccc(C)c4nc3n2C)c1 -0.498%
CN(C)c1ccc(-c2nc3ccccn3c2Nc2ccc3c(c2)OCCO3)cc1 -18.5%
Cc1cccc(N2CCN(C(=O)c3c4c(nc5ccccc35)C(=O)N(C3CCCCC3)C4)CC2)c1C 1.06%
COc1cc(OC)c(NC(=O)C(C)n2nc(-c3ccc(C)c(C)c3)ccc2=O)cc1Cl (stereo not given) 3.63%
COc1cccc(NC(=O)CSc2nnc(NC(=O)NC3CCCCC3)s2)c1 5.51%
Cc1cccc(C)c1OCc1cc(=O)n2ccsc2n1 -3.38%
COCCN1C(=O)c2oc3ccc(C)cc3c(=O)c2C1c1ccc(C(=O)OC)cc1 (stereo not given) -7.68%
CSc1ncc(C(=O)NCc2cccc(Br)c2)c(-c2ccccc2)n1 -19.5%
COc1cccc(C(=O)c2cn(CC(=O)Nc3cccc(Cl)c3C)c3nc(C)ccc3c2=O)c1 5.57%
O=C(Cn1c(=O)c2sccc2n(CC(=O)Nc2ccc(Cl)cc2Cl)c1=O)NCCc1ccccc1 -7.27%
CCCN1Cc2cccc(C(=O)Nc3ccc(OC)cc3OC)c2C1=O -0.205%
Cc1ccc(NC(=O)N2CCc3c([nH]c4ccccc34)C2c2ccccc2F)c(Cl)c1 (stereo not given) 6.01%
COc1ccc(C(C(=O)NCc2ccccc2)N(C(=O)Cn2nnc3ccccc32)c2ccc(OC)cc2)cc1 (stereo not given) 9.93%
Cc1ccc(C)c(NS(=O)(=O)c2ccc3c(c2)CCCN3C(=O)C2CCC2)c1 -16.1%
O=C(NCc1ccccc1F)C(=O)NCC(c1ccco1)S(=O)(=O)c1ccccc1 (stereo not given) -3.05%
COC(=O)c1c(NC(=O)CCCOc2ccccc2C)sc2c1CCC2 -20.3%
Cc1cccc(N2CCN(C(=O)c3cccc(-n4c(C)nc5cccnc54)c3)CC2C)c1 (stereo not given) -3.73%
Cc1c(C(=O)Nc2ccccc2Cl)oc2ccc(S(=O)(=O)N3CCCCCC3)cc12 6.18%
